# Laboratory results as given in the supplement of paper PMC8728848.
# The list shows a part of the results.
# Experiments:
# Assay in all cases: glycan array binding signal (z-score within array); higher = stronger binding
# Details in all cases: glycan notation: IUPAC condensed, linker removed
# Gal6S(b1-4)Glc = target: Gal6S(b1-4)Glc
# Procedure, shortened: (§1)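 Glycan array data came from 3228 arrays in the Consortium for Functional Glycomics database, and only arrays with an available protein sequence were kept. Glycan names were put into IUPAC-condensed notation, and columns mapping to the same glycan were averaged. The binding signal is a within-array Z-score, averaged across arrays of one protein sequence run at different concentrations or buffers and across linkers. A negative Z-score can be read as non-binding.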
# Gal6S(b1-4)Glc6S = target: Gal6S(b1-4)Glc6S
# Procedure, shortened: as §1
# Gal6S(b1-4)GlcNAc = target: Gal6S(b1-4)GlcNAc
# Procedure, shortened: as §1
# Gal6S(b1-4)GlcNAc6S = target: Gal6S(b1-4)GlcNAc6S
# Procedure, shortened: as §1
# GalNAc(a1-3)Gal = target: GalNAc(a1-3)Gal
# Procedure, shortened: as §1
# GalNAc(a1-3)GalNAc = target: GalNAc(a1-3)GalNAc
# Procedure, shortened: as §1
# [1] = target: GalNAc(a1-3)GalNAc(b1-3)Gal(a1-4)Gal(b1-4)Glc
# Procedure, shortened: as §1
# [2] = target: GalNAc(a1-3)GalNAc(b1-3)Gal(a1-4)Gal(b1-4)GlcNAc
# Procedure, shortened: as §1
# GalNAc(b1-3)Gal = target: GalNAc(b1-3)Gal
# Procedure, shortened: as §1
# [3] = target: GalNAc(b1-3)Gal(a1-4)Gal(b1-4)GlcNAc
# Procedure, shortened: as §1
# [4] = target: GalNAc(b1-3)Gal(a1-4)Gal(b1-4)GlcNAc(b1-3)Gal(b1-4)Glc
# Procedure, shortened: as §1
# [5] = target: GalNAc(b1-3)Gal(a1-6)Gal(b1-4)Glc
# Procedure, shortened: as §1
# GalNAc(b1-3)GalNAc = target: GalNAc(b1-3)GalNAc
# Procedure, shortened: as §1
# GalNAc(b1-3)GlcNAc = target: GalNAc(b1-3)GlcNAc
# Procedure, shortened: as §1
# GalNAc(b1-4)Gal(b1-4)Glc = target: GalNAc(b1-4)Gal(b1-4)Glc
# Procedure, shortened: as §1
# GalNAc(b1-4)GlcNAc = target: GalNAc(b1-4)GlcNAc
# Procedure, shortened: as §1
# [6] = target: GalNAc(b1-4)GlcNAc(b1-2)Man
# Procedure, shortened: as §1
# [7] = target: GalNAc(b1-4)GlcNAc(b1-2)Man(a1-3)[GalNAc(b1-4)GlcNAc(b1-2)Man(a1-6)]Man(b1-4)GlcNAc(b1-4)GlcNAc
# Procedure, shortened: as §1
# [8] = target: GalNAc(b1-4)GlcNAc(b1-3)GalNAc(b1-4)GlcNAc
# Procedure, shortened: as §1
# GalNAc(b1-4)GlcNAc6S = target: GalNAc(b1-4)GlcNAc6S
# Procedure, shortened: as §1
# GalNAc(b1-6)GalNAc = target: GalNAc(b1-6)GalNAc
# Procedure, shortened: as §1
# GalNAc3S(b1-4)GlcNAc = target: GalNAc3S(b1-4)GlcNAc
# Procedure, shortened: as §1
# GalNAc3S(b1-4)GlcNAc3S = target: GalNAc3S(b1-4)GlcNAc3S
# Procedure, shortened: as §1
# [9] = target: GalNAc3S(b1-4)[Fuc(a1-3)]GlcNAc
# Procedure, shortened: as §1
# GalNAc4S6S(b1-4)GlcNAc = target: GalNAc4S6S(b1-4)GlcNAc
# Procedure, shortened: as §1
# GalNAc6S(b1-4)GlcNAc = target: GalNAc6S(b1-4)GlcNAc
# Procedure, shortened: as §1
# Glc(a1-4)Glc = target: Glc(a1-4)Glc
# Procedure, shortened: as §1
# [10] = target: Glc(a1-4)Glc(a1-4)Glc(a1-4)Glc
# Procedure, shortened: as §1
# Glc(a1-6)Glc(a1-6)Glc = target: Glc(a1-6)Glc(a1-6)Glc
# Procedure, shortened: as §1
# [11] = target: Glc(a1-6)Glc(a1-6)Glc(a1-6)Glc
# Procedure, shortened: as §1
# Glc(b1-4)Glc = target: Glc(b1-4)Glc
# Procedure, shortened: as §1
# Glc(b1-6)Glc = target: Glc(b1-6)Glc
# Procedure, shortened: as §1
# GlcA(b1-3)Gal = target: GlcA(b1-3)Gal
# Procedure, shortened: as §1
# GlcA(b1-3)GlcNAc = target: GlcA(b1-3)GlcNAc
# Procedure, shortened: as §1
# GlcA(b1-6)Gal = target: GlcA(b1-6)Gal
# Procedure, shortened: as §1
# [12] = target: GlcA3S(b1-3)Gal(b1-4)GlcNAc(b1-2)Man
# Procedure, shortened: as §1
# [13] = target: GlcA3S(b1-3)Gal(b1-4)GlcNAc(b1-3)Gal(b1-4)Glc
# Procedure, shortened: as §1
# [14] = target: GlcNAc(a1-3)Gal(b1-4)GlcNAc
# Procedure, shortened: as §1
# [15] = target: GlcNAc(a1-4)Gal(b1-3)GlcNAc
# Procedure, shortened: as §1
# [16] = target: GlcNAc(a1-4)Gal(b1-4)GalNAc
# Procedure, shortened: as §1
# [17] = target: GlcNAc(a1-4)Gal(b1-4)GlcNAc
# Procedure, shortened: as §1
# [18] = target: GlcNAc(a1-4)Gal(b1-4)GlcNAc(b1-3)Gal(b1-4)Glc
# Procedure, shortened: as §1
# [19] = target: GlcNAc(a1-4)Gal(b1-4)GlcNAc(b1-3)Gal(b1-4)GlcNAc
# Procedure, shortened: as §1
# [20] = target: GlcNAc(a1-4)Gal(b1-4)GlcNAc(b1-3)Gal(b1-4)GlcNAc(b1-3)Gal(b1-4)GlcNAc
# Procedure, shortened: as §1
# [21] = target: GlcNAc(a1-4)Gal(b1-4)GlcNAc(b1-3)Gal(b1-4)[Fuc(a1-3)]GlcNAc(b1-3)Gal(b1-4)[Fuc(a1-3)]GlcNAc
# Procedure, shortened: as §1
binder,measurement,setting,value
PX9961A-pdi-456-24-456 (Parabacteroides distasonis) (protein) KTSSTQLPTIDAISSVADLTNAVNGVYEQQATEVGSYGAEFTLLADLRSGDFQSISTVNHAGPMYRYQTGKNDEMVYSFYKLFYNSLARLNNVLAAAENLEGADVDILKGELYAMRALYHFDLARVFAKLPSTTDMNDLGIVLSTEVYPTDYIGTRATLQQTYDQILKDIETALPLLSKDKQTGHINYWGALAIRARAYLYLEKNKEALADCKEIIASSPYKLYTRDEYIGAWDKEGTNEAIFEILVTPNYNAQRNSIGYFTHASGYGECAATESFLEELAKHPGDIRTELFAKETDNGYDGTYPQKYKGRDGQIYVNNPKVVRLSEVYLIAAEAALKAGDTSAAAGYMNTLRKNRIENYTDVASITLDDILLERRLELFTEGHTAWDAWRNGKSVNNKFVGEVKPGDYRTIMAIPIGEITVSRGQLIQNPGY,glycan array binding signal (z-score),Gal6S(b1-4)Glc,-0.351
same,glycan array binding signal (z-score),Gal6S(b1-4)Glc6S,0.008
same,glycan array binding signal (z-score),Gal6S(b1-4)GlcNAc,1.72
same,glycan array binding signal (z-score),Gal6S(b1-4)GlcNAc6S,0.056
same,glycan array binding signal (z-score),GalNAc(a1-3)Gal,3.31
same,glycan array binding signal (z-score),GalNAc(a1-3)GalNAc,-0.374
same,glycan array binding signal (z-score),[1],-0.433
same,glycan array binding signal (z-score),[2],-0.597
same,glycan array binding signal (z-score),GalNAc(b1-3)Gal,-0.363
same,glycan array binding signal (z-score),[3],0.389
same,glycan array binding signal (z-score),[4],0.012
same,glycan array binding signal (z-score),[5],0.144
same,glycan array binding signal (z-score),GalNAc(b1-3)GalNAc,-0.496
same,glycan array binding signal (z-score),GalNAc(b1-3)GlcNAc,-0.227
same,glycan array binding signal (z-score),GalNAc(b1-4)Gal(b1-4)Glc,0.003
same,glycan array binding signal (z-score),GalNAc(b1-4)GlcNAc,1.7
same,glycan array binding signal (z-score),[6],-0.275
same,glycan array binding signal (z-score),[7],0.266
same,glycan array binding signal (z-score),[8],0.949
same,glycan array binding signal (z-score),GalNAc(b1-4)GlcNAc6S,0.263
same,glycan array binding signal (z-score),GalNAc(b1-6)GalNAc,-0.186
same,glycan array binding signal (z-score),GalNAc3S(b1-4)GlcNAc,-0.381
same,glycan array binding signal (z-score),GalNAc3S(b1-4)GlcNAc3S,-0.352
same,glycan array binding signal (z-score),[9],-0.608
same,glycan array binding signal (z-score),GalNAc4S6S(b1-4)GlcNAc,-0.107
same,glycan array binding signal (z-score),GalNAc6S(b1-4)GlcNAc,-0.403
same,glycan array binding signal (z-score),Glc(a1-4)Glc,-0.435
same,glycan array binding signal (z-score),[10],0.037
same,glycan array binding signal (z-score),Glc(a1-6)Glc(a1-6)Glc,-0.09
same,glycan array binding signal (z-score),[11],-0.49
same,glycan array binding signal (z-score),Glc(b1-4)Glc,0.012
same,glycan array binding signal (z-score),Glc(b1-6)Glc,-0.218
same,glycan array binding signal (z-score),GlcA(b1-3)Gal,-0.413
same,glycan array binding signal (z-score),GlcA(b1-3)GlcNAc,-0.238
same,glycan array binding signal (z-score),GlcA(b1-6)Gal,-0.294
same,glycan array binding signal (z-score),[12],-0.048
same,glycan array binding signal (z-score),[13],0.449
same,glycan array binding signal (z-score),[14],-0.438
same,glycan array binding signal (z-score),[15],-0.059
same,glycan array binding signal (z-score),[16],0.337
same,glycan array binding signal (z-score),[17],-0.469
same,glycan array binding signal (z-score),[18],0.098
same,glycan array binding signal (z-score),[19],-0.127
same,glycan array binding signal (z-score),[20],0.299
same,glycan array binding signal (z-score),[21],1.26
